Source: PubChem BioAssay AID504339 (National Center for Advancing Translational Sciences (NCATS), 2011)
Values joined by “and” are separate entries in the source; they are usually repeats but may differ in a detail not shown here. Equal entries are not always repeated. About 17,000 (4.4%) of roughly 390,000 compounds were called active. The shares of active, inactive and inconclusive entries below differ from those in the screen. Calls come from the whole dose curve; as a rule, active = well fitted inhibition curve with a large enough effect; inconclusive = small, poorly fitted or top-dose-only effect; inactive = no such curve, though single readings can be large or run the other way. Potencies of inconclusive entries are doubtful fits and often do not repeat.

Each compound was assayed against Lysine-specific demethylase 4A (Homo sapiens) (UniProt O75164) (assay: qHTS Assay for Inhibitors of JMJD2A-Tudor Domain). Conditions: AlphaScreen JMJD2A-Tudor / H3K4me3 peptide binding; activity change, negative = inhibition: at 114 µM (top of the series).
UniProt O75164, sequence (O75164 whole entry, looked up, the tested form may be a part): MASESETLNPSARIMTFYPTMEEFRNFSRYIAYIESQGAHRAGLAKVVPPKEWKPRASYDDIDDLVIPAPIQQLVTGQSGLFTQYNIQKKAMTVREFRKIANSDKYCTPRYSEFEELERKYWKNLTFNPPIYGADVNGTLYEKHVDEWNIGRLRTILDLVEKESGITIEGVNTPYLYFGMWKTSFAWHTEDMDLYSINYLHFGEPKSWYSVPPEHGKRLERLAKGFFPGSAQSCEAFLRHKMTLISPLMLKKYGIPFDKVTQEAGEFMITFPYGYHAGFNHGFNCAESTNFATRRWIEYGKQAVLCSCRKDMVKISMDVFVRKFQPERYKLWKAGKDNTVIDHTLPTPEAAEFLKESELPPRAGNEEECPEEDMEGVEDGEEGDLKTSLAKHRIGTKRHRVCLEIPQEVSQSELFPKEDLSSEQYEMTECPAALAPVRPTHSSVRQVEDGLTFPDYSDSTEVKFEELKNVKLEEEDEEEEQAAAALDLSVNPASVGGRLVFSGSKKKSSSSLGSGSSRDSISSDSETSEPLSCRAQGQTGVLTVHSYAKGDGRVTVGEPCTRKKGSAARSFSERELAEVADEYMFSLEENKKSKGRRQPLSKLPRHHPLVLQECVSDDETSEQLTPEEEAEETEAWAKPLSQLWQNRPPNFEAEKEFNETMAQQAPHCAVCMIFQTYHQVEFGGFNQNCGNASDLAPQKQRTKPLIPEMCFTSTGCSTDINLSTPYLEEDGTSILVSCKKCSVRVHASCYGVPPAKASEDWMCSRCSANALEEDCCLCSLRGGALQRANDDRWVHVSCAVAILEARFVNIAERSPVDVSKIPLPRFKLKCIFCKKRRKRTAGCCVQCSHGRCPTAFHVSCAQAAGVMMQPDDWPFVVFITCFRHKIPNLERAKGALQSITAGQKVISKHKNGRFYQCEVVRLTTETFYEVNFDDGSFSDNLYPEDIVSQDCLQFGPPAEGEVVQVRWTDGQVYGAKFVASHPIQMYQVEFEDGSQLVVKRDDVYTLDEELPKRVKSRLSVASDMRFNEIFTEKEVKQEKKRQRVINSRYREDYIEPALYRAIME
% is set by controls: 0 for no effect and ±100 for the full control effect; potency is the fitted concentration of half-maximal effect; tags give direction and shape of the fitted curve.
Note: nearly all actives have a fitted effect of over 50% in size.

SMILES | Potency | activity change, negative = inhibition
O=C(Nc1ccc(C(=O)NCCCN2CCN(c3ccccc3)CC2)cc1)C1=CSCCO1 | inconclusive: 35.5 µM [inhibitor, partial curve] | 
CCc1ccc(-n2nc(CO)c(C(=O)NC(C)c3ccc(Cl)cc3)n2)cc1 (configuration not stated) |  | inactive: -0.943%
CCc1ccc(NC(=O)CSc2nc3c(c(=O)n(C)c(=O)n3C)n2C)cc1 |  | inactive: -21.8%
CCN(CC)c1ccc(C(=C2C=CC(=[N+](CC)CC)C=C2)c2ccccc2)cc1 | active: 15.8 µM | 
O=C(CN1C(=O)NC2(CCCC2)C1=O)N1CCN(S(=O)(=O)c2ccccc2[N+](=O)[O-])CC1 |  | inactive: -12.2%
CN(C)S(=O)(=O)c1cccc(NC(=O)c2c[nH]c3ccccc23)c1 |  | inactive: -25.9%
O=c1oc2ccccc2c(O)c1C=Nc1cccnc1 | inconclusive: 35.5 µM [inhibitor, single point] | 
COC(=O)C1=C(C(=O)OC)[C@]2([C@@H]3CC=CCN[C@@H](Cc4ccccc4)C(=O)N3Cc3ccccc3)C=C[C@H]1O2 | inconclusive: 12.6 µM [inhibitor, full curve] | 
CCN(CCCNC(=O)CSc1cc(=O)n(CC)c2ccccc12)c1ccccc1 | active: 50.1 µM | 
CCc1ccc(S(=O)(=O)/N=C2\C=C(NS(=O)(=O)c3ccccc3)C(=O)c3ccccc32)cc1 | active: 22.4 µM | 
CCOC(=O)c1c(NC(=O)CCN2CCOCC2)sc(C)c1-c1ccccc1 | inconclusive: 56.2 µM [inhibitor, partial curve] | 
CCc1ccc(NC(=O)Nc2cn(C)c(=O)c3ccccc23)cc1 |  | inactive: -13.5%
CCc1c(C)sc2c1CCN(Cc1ccccc1)C2c1ccccc1 (configuration not stated) |  | inactive: -11.3%
Cc1c(NC(=O)Nc2ccc(C(C)(C)C)cc2)c(=O)n(-c2ccccc2)n1C | inconclusive: 56.2 µM [inhibitor, partial curve] | 
O=C(CCNS(=O)(=O)c1ccc(Br)cc1)NCc1ccc(Cl)cc1 | inconclusive: 20 µM [inhibitor, partial curve, poor fit] | 
CCCn1c(=O)c(C(=O)NCc2ccccc2)c(O)c2ccccc21 | inconclusive: 31.6 µM [inhibitor, single point] | 
O=C(CCCN1C(=O)/C(=C/c2cccc(Br)c2)SC1=S)Nc1cccnc1 | inconclusive: 44.7 µM [inhibitor, partial curve] | 
CCn1c(C(C)NS(=O)(=O)c2ccc(Cl)cc2)n[nH]c1=S (configuration not stated) | active: 20 µM | 
COc1cc(OC)c2c(C)cc(=O)oc2c1C(CCN1CCCCC1)c1ccc(N(C)C)cc1 (configuration not stated) | active: 39.8 µM | 
O/N=C1/CCc2nonc2/C1=N/O | inconclusive: 89.1 µM [inhibitor, partial curve, poor fit] | 
N#CC1=C(N)NC(SCc2ccc(Br)cc2)=C(C#N)C12CCCCC2 | inconclusive: 22.4 µM [inhibitor, full curve] | 
Cc1c(Cl)cccc1-c1ccc(CNCCCSc2nnnn2C)o1 | inconclusive: 79.4 µM [inhibitor, partial curve] | 
CCCCNC(=S)N/N=C/c1ccc(C#N)cc1 | active: 89.1 µM | 
CC(c1nnc(SCC(=O)Nc2cc([N+](=O)[O-])ccc2F)n1Cc1ccccc1)N(C)C (configuration not stated) |  | inactive: -17.5%

SMILES | Potency | activity change, negative = inhibition
O=C(c1ccc([N+](=O)[O-])cc1)N1CCN=C1SCc1ccccc1 | inconclusive: 50.1 µM [inhibitor, partial curve] | 
CCOC(=O)C1=C(CSc2nc(C)cc(C)c2C#N)OC(N)=C(C#N)C1c1ccccc1 (configuration not stated) | inconclusive: 31.6 µM [inhibitor, full curve, poor fit] | 
COc1ccc(Nc2nc3ccccc3nc2NS(=O)(=O)c2ccc(C)cc2)c(OC)c1 |  | inactive: -20.1%
COc1ccc2c(c1)c1ccc3c(c1n2C)C(=O)C=CC3=O | active: 39.8 µM | 
CCOc1ccc(NCC(=O)Nc2ccc(C)cc2C)cc1 | inconclusive: 79.4 µM [inhibitor, partial curve] | 
O=C(O)CCCCCNC(=O)c1ccncc1 | inconclusive: 100 µM [inhibitor, single point] | 
Cc1ccc(C(=O)CCC(=O)Nc2cccc(C)c2)cc1 |  | inactive: -0.694%
COCCCNCCCOc1ccc(C(C)(C)c2ccccc2)cc1 | active: 6.31 µM | 
Cc1ccccc1-c1cc(C(=O)NCc2cccs2)n(CC2CC(c3cccnc3)=NO2)n1 (configuration not stated) | inconclusive: 79.4 µM [inhibitor, partial curve] | 
COCCn1c(-c2ccccc2)csc1=Nc1cccnc1 | inconclusive: 50.1 µM [inhibitor, partial curve] | 
CSCCC(Nc1ccc(S(=O)(=O)N2CCOCC2)cc1[N+](=O)[O-])C(=O)OCC(=O)N(C(C)C)C(C)C (configuration not stated) | inconclusive: 56.2 µM [inhibitor, partial curve] | 
CN1/C(=C\C(=S)NC(=O)c2cccc(Br)c2)C(C)(C)c2ccccc21 | active: 20 µM | 
Cc1cccc(NC(=O)C(NS(=O)(=O)c2ccc3c(c2)CCC(=O)N3)c2ccccc2)n1 (configuration not stated) | inconclusive: 44.7 µM [inhibitor, partial curve] | 
O=C(Nc1ccc(Cl)cn1)Nc1ccccc1Cl | inconclusive: 17.8 µM [inhibitor, partial curve] | 
O=c1c(-c2cccc3ccccc23)[n+]([O-])c2ccccc2n1O | inconclusive: 89.1 µM [inhibitor, single point] | 
O=C(N/N=C/c1ccc[nH]1)c1ccc(COc2cccc3cccnc23)cc1 | inconclusive: 79.4 µM [inhibitor, partial curve] | 
Cc1ccccc1SCC(=O)OCC(=O)Nc1ccc(N(C)C)cc1 | active: 44.7 µM | 
CCOC(=O)/C(=C\c1cn(C)c2ccccc12)[N+](=O)[O-] | inconclusive: 15.8 µM [inhibitor, full curve] | 
COc1ccc(-c2nc3ccccc3c(=O)n2Cc2ccc(CNC(=O)CO)cc2)cc1COc1ccc(NC(C)=O)cc1 | active: 79.4 µM | 
O=c1[nH]n2c(=O)c3c([nH]c2c1N=Nc1cccc(Cl)c1)CCC3 | active: 3.98 µM | 
CN(C)c1ccc(CNC(=O)C2CCN(S(=O)(=O)c3ccc4c(c3)CCCC(=O)N4)CC2)cc1 | inconclusive: 50.1 µM [inhibitor, partial curve] | 
Cn1cccc1Cc1nnc(SCC(=O)NC2CCCCC2)n1CCc1ccccc1 | inconclusive: 56.2 µM [inhibitor, partial curve] | 
Cc1cc(C)n(CC(O)COc2ccc(C(C)(C)C)cc2)n1 (configuration not stated) | active: 79.4 µM | 
Cc1cc(C)cc(N=Cc2ccc([N+](=O)[O-])s2)c1 | active: 20 µM | 

SMILES | Potency | activity change, negative = inhibition
Cn1cccc1Cc1nnc(SCC(=O)NCc2ccco2)n1-c1ccc(F)cc1 | inconclusive: 56.2 µM [inhibitor, partial curve] | 
CCc1nnc(NC(=O)CCN2C(=O)c3ccccc3C2=O)s1 |  | inactive: -14.9%
CCOc1ccc(NC(=NCc2ccc3c(c2)OCO3)SC2CC(=O)N(c3ccc(C(=O)O)cc3)C2=O)cc1 (configuration not stated) | inconclusive: 56.2 µM [inhibitor, partial curve] | 
Cc1cc(=O)oc2cc(OCC(=O)Nc3ccc(N4CCC(C)CC4)cc3)ccc12 | inconclusive: 100 µM [inhibitor, single point] | 
COc1ccc(CN2CC[C@H]3C=CCc4cccc(c43)C2)cc1 | inconclusive: 56.2 µM [inhibitor, partial curve] | 
O=C(NC(=S)Nc1ccc(N2CCCCC2)c(Cl)c1)c1cccs1 | inconclusive: 35.5 µM [inhibitor, partial curve] | 
CCc1ccc(NC(=O)CN(C)S(=O)(=O)c2ccc3c(c2)c(=O)n(C)c(=O)n3C)cc1 |  | inactive: 5.39%
COc1ccc(NC(=O)c2ccco2)cc1NC(=O)COc1cccc(C)c1C |  | inactive: -17.9%
COCCCNC1=C(Cl)C(=O)c2ccccc2C1=O | inconclusive: 44.7 µM [inhibitor, partial curve] | 
O=C1N/C(=N\c2ccccn2)SC1Cc1ccc(Cl)cc1 (configuration not stated) | active: 25.1 µM | 
COc1ccccc1Nc1c2c(nc3ccc(N)cc13)CCCC2 | active: 39.8 µM | 
C[N+](C)(C)CCCCCCCCCC[N+](C)(C)C |  | inactive: -2.16%
c1ccc(N2CCN(c3nc4ccccc4n4nnnc34)CC2)cc1 |  | inactive: 0.755%
Nc1n[nH]c(N)c1N=Nc1ccccc1F | inconclusive: 10 µM [inhibitor, single point] | 
Cc1cc(C)nc(N/N=C/C2=C(O)CC(c3ccc(F)cc3)CC2=O)n1 (configuration not stated) | active: 31.6 µM | 
COc1ccc(S(=O)(=O)Nc2ccc3c(c2)sc(=O)n3C)cc1Cl |  | inactive: -19.2%
NCCCCCNC(=O)c1[nH]cnc1C(=O)N[C@@H](Cc1ccccc1)C(=O)OCc1ccccc1 | inconclusive: 31.6 µM [inhibitor, partial curve] | 
COc1ccc(CC(=O)Nc2ccc(/C(C)=N/NC(=O)c3ccc(OC)cc3OC)cc2)cc1 |  | inactive: -8.22%
CCN1CCN(Cc2ccc(NC(=O)c3ccc(C)c(NC(=O)C(=O)c4c[nH]c5ccccc45)c3)cc2C(F)(F)F)CC1 | active: 50.1 µM and active: 39.8 µM | 
COc1ccc(CCN2CN(S(=O)(=O)c3ccc(OC)cc3)c3nc4ccccc4nc32)cc1 | inconclusive: 28.2 µM [inhibitor, single point] | 
CN(C)CCNC(=O)c1cccc(S(=O)(=O)Nc2ccc(F)cc2)c1 |  | inactive: -16.5%
Cc1ccc(NC(=O)CSc2nnc(COc3ccc(Cl)cc3)o2)cc1 |  | inactive: -13.9%
O=C(CSCc1cnn(-c2ccccc2)c1-n1cccc1)NCc1ccc2c(c1)OCO2 | inconclusive: 79.4 µM [inhibitor, single point] | 
Cc1cc(C(=O)COc2ccc(Cl)cc2Br)c(C)n1C | inconclusive: 56.2 µM [inhibitor, partial curve, poor fit] | 
